About 6,900 (2%) of roughly 340,000 compounds were called active. Rule as the data show it: active = inhibition above about 30%; inactive = below that, where a call was filed. The list shows a part of the results, in another mix than the full data. Entries without a call were filed so in the source.
What follows are compounds tested against D(2) dopamine receptor (Homo sapiens) (UniProt P14416) (assay: HTS Assay for Allosteric Antagonists of the Human D2 Dopamine Receptor: Primary Screen for Antagonists). Conditions: HEK293 TREx D2 cells, calcium flux, dopamine EC80; at 10 µM; stronger effect = higher value.
In short: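 Overnight-induced (tetracycline, 30 C) HEK293 T-REx cells carrying force-coupled D2 receive a no-wash calcium dye, then compound, then EC80 dopamine at 180 s; signals are read kinetically throughout.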
Also: 0% is about no effect.

Sequence of UniProt P14416 (P14416 whole entry, looked up): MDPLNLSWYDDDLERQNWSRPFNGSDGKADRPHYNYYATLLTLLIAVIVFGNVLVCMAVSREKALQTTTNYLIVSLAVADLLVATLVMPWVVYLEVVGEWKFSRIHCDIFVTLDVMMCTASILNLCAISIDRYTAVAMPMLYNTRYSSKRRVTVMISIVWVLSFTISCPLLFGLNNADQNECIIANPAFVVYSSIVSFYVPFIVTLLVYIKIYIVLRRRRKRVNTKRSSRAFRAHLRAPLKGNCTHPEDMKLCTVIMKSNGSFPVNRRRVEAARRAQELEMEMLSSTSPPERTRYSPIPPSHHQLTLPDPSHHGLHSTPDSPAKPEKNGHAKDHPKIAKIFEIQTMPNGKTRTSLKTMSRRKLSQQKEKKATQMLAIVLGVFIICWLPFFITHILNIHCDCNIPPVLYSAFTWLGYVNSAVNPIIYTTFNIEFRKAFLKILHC

| SMILES | inhibition |
| --- | --- |
| Cc1ccc(C)c(CSc2cn(CC(=O)N3CCCC3)c3ccccc23)c1 | -14.1% |
| COc1ccc2cc(-c3nc(-c4ccc(N(C)C)cc4)no3)c(=O)oc2c1 | -5.73% |
| COc1ccc(-c2nc3ccccc3o2)cc1NC(=O)c1cccc2c(Cl)cccc12 | -1.34% |
| CCOc1ccc(N2CC(NC(=O)Cc3cccs3)CC2=O)cc1 (stereo unspecified) | -21.6% |
| CCOc1ccc(CCNC(=O)CCn2c(=O)c3cccn3c3ccc(F)cc32)cc1OCC | -4.87% |
| Cc1nn(C)c2c1c(-c1ccccc1)cc(=O)n2Cc1ccc(F)cc1Cl | -3.19% |
| CCN(CC)C(=O)Cn1c(=O)n(-c2ccc(Cl)cc2)c(=O)c2c3c(sc21)CCCCC3 | 7.02% |
| CC(C)(C)C1(c2ccccc2)NC(=O)N(CC(=O)N2CCOCC2)C1=O (stereo unspecified) | active: 43.8% |
| CCCN(Cc1cccs1)C(=O)Nc1cc(C)cc(C)c1 | 6.63% |
| CCc1ccccc1Nc1nn2c(=O)c3ccc(C(=O)NC4CCC(C)CC4)cc3nc2s1 (stereo unspecified) | 12.6% |
| Cc1oc(-c2ccccc2)nc1Cn1c(SCc2cccc(C(F)(F)F)c2)nc2cccnc21 | 11% |
| CCc1cnc2c(c1SCc1c(F)cccc1Cl)c(=O)n(C)c(=O)n2C | 3.48% |
| COc1ccc(-n2ncc(C(=O)N3CCN(Cc4ccccc4)CC3)c2C2CCN(C(=O)OC(C)(C)C)CC2)cc1 | -3.6% |
| CCOC(=O)c1ccc(NC(=O)CC2C(=O)N(c3ccccc3)C(=O)N2Cc2ccc(C)cc2)cc1 (stereo unspecified) | 22.2% |
| Cc1nn(C(=O)COc2ccc(Cl)cc2)c(C)c1Sc1ccccc1 | -4.02% |
| COc1ccc(C(=O)Nc2cnc3ccccn3c2=O)cc1 | -22.1% |
| CCOC(=O)c1c(NC(=O)c2ccc(S(=O)(=O)N3CCC(C)CC3)cc2)sc2c1CCN(C(C)C)C2 | 2.17% |
| COc1ccc(CCNC(=O)CCCn2c(=O)c3ccccc3n(CC(=O)Nc3cccc(C)c3)c2=O)cc1OC | -16.6% |
| CC(C)(C)C(=O)Nc1ccc(-c2nc3ccccc3s2)cc1 | 13.1% |
| CCc1ccc(CN2C(=O)c3ccccc3C2C(=O)NC2CCCCCC2)cc1 (stereo unspecified) | 11.4% |
| CCOc1ccc(-c2c(C)nn3c(C)c(C(=O)NCc4cccc(OC)c4)cnc23)cc1OCC | -9.75% |
| N#Cc1ccc(OC(=O)c2cc(-c3ccc(Cl)cc3)on2)cc1 | -13.8% |
| O=C(CCC1N=C2c3ccccc3N=C(SCC(=O)Nc3ccccc3F)N2C1=O)NCc1ccco1 (stereo unspecified) | 0.806% |
| Cc1cccc(NS(=O)(=O)c2ccc3[nH]c(=O)[nH]c3c2)c1C | 3.52% |

| SMILES | inhibition |
| --- | --- |
| S=C(c1c[nH]c2ccc(Br)cc12)N1CCOCC1 | active: 38.3% |
| O=C1C(NS(=O)(=O)c2cccs2)=C(N2CCN(Cc3ccccc3)CC2)C(=O)c2ccccc21 | active: 39.1% |
| Cc1ccc(NC(=O)CN(C)S(=O)(=O)c2ccc3c(c2)n(C)c(=O)c(=O)n3C)c(C)c1 | 1.51% |
| O=C(Nc1ccc(N2CCOCC2)c(Cl)c1)c1ccc2c(c1)OCCO2 | active: 30.5% |
| COc1ccccc1CNc1ccc(-c2nc(-c3ccccn3)no2)cc1[N+](=O)[O-] | 7.11% |
| COc1ccc(OC)c(NC(=O)CCNS(=O)(=O)c2cccc3nsnc23)c1 | -4.74% |
| O=C(Cc1ccc(NC(=O)N2CCCCc3ccccc32)cc1)NCc1ccccc1Br | 2.87% |
| Cc1cccc(CCNC(=O)C2CCC(CNS(=O)(=O)c3c(C)cc(C)cc3C)CC2)c1 (stereo unspecified) | -6.87% |
| CCCCN(CC)CCCNC(=O)CC1Nc2ccccc2NC1=O (stereo unspecified) | active: 40.5% |
| COc1cc(Cl)c(C)cc1NC(=O)Cn1cc(S(=O)(=O)N2CCN(c3ccccc3F)CC2)c2ccccc2c1=O | 8.16% |
| Cn1nc(-c2ccccc2F)c2cc(C(=O)NCc3ccc(Cl)cc3)sc21 | -4.73% |
| COc1ccc(C2=C(C(C)=O)Sc3nnc(-c4ccc(C)cc4)n3N2C(C)=O)cc1OC | -23.6% |
| COc1ccc(NC(=O)C(=O)NCCc2sc(-c3ccc(Cl)cc3)nc2C)cc1 | -4.68% |
| CC1CCc2c(sc(NC(=O)Cn3nnc(-c4ccc(C(F)(F)F)cc4)n3)c2C#N)C1 (stereo unspecified) | -5.75% |
| Cc1ccc(S(=O)(=O)N(Cc2ccccc2)Cc2ccco2)cc1 | active: 32.5% |
| COc1ccc(CC(=O)NCCc2sc(-c3ccc(Cl)cc3)nc2C)cc1OC | -25.7% |
| CC1CCN(c2cc3c(cc2F)c(=O)c(S(=O)(=O)c2cccc(Cl)c2)cn3Cc2ccccc2)CC1 | -6.84% |
| COc1ccccc1CNS(=O)(=O)c1ccc(-c2cc(C(F)(F)F)on2)s1 | 15.5% |
| COc1ccccc1C(=O)Nc1ccc(NC(=O)c2cccs2)cc1 | 11.3% |
| CCOc1ccc(S(=O)(=O)NCC(c2ccco2)S(=O)(=O)c2ccc(C)cc2)cc1 (stereo unspecified) | 20.9% |
| COc1ccc(Nc2cc(C(=O)NCCCN(C)Cc3ccccc3)c3ccccc3n2)c(OC)c1 | 10.6% |
| COc1ccccc1NC(=O)N1CCN(c2nnc(C)c3c(C)n(-c4ccc(Cl)cc4)nc23)CC1 | 7.68% |
| COc1cc(-c2nc3ccccn3c2Nc2ccccc2C)ccc1O | 26.8% |
| CCOc1ccccc1NC(=O)COC(=O)c1cn(CC)c2nc(C)ccc2c1=O | -6.1% |

| SMILES | inhibition |
| --- | --- |
| O=C(Nc1cccc(C(F)(F)F)c1)N1CCC(CN2CCCCCC2)CC1 | -0.859% |
| CN1CCCN(C(c2ccccc2)c2ccc(Cl)cc2)CC1 (stereo unspecified) | active: 81.7% |
| CCOc1ccc(NC(=O)c2ccc3c(SCC(=O)O)c4c(nc3c2)CCC4)cc1 | -2.58% |
| COc1ccc(OC)c(C2c3c(-c4ccc(Br)cc4)n[nH]c3C(=O)N2c2ccc(Cl)cc2)c1 (stereo unspecified) | 24% |
| NC(=O)C[n+]1cccc(CNC(=O)c2ccc(OC(F)F)cc2)c1 | active: 31.7% |
| CCOC(=O)c1c(Nc2cccc(C(=O)OC)c2)nnc(-c2ccccc2)c1-c1ccccc1 | 28.2% |
| CCOc1ccccc1-c1noc(CSc2nnc(-c3ccccc3)n2-c2cccc(C)c2)n1 | -3.66% |
| OCc1ccccc1OCCCN1CCC(Cc2ccccc2)CC1 | active: 40.5% |
| CC(C)NC(=O)C1CCC(Cn2c(=O)c3sccc3n(CC(=O)Nc3ccccc3)c2=O)CC1 (stereo unspecified) | 2.98% |
| CCOC(=O)c1c(C)n(-c2ccccc2)c2ccc(OC(=O)c3cccc(Cl)c3)cc12 | 4.97% |
| Cc1ccccc1C(=O)Nc1nc(-c2ccc(Br)cc2)ns1 | 11.8% |
| COc1ccc(-c2csc3nc(-c4ccccc4)oc(=O)c23)cc1OC | -13.9% |
| CCOC(=O)c1ccc(CN(Cc2ccccc2)S(=O)(=O)c2ccc(Cl)cc2)cc1 | -9.29% |
| Cc1cccc(-c2nc(CSc3nncn4c3cc3sccc34)c(C)o2)c1 | -7.4% |
| CC(C)Oc1ccc(CNC(=O)C2CCN(C(=O)N3CC(C)Oc4ccccc43)CC2)cc1 (stereo unspecified) | 10.6% |
| CC(=O)c1cc(-c2ccccc2)n(CC(=O)NCCc2ccc(C)cc2)c1C | -0.751% |
| FC(F)(F)c1cc(-c2cccc(Br)c2)nc2ncnn12 | 4.11% |
| CCOC(=O)c1cnc2ccc(OCC)cc2c1N1CCN(c2ccccc2F)CC1 | 3.58% |
| CCOC(=O)C1CCC(CN(Cc2ccc(OC)cc2)S(=O)(=O)c2ccc(F)c(C(=O)Nc3cc(C)ccc3C)c2)CC1 (stereo unspecified) | -13.4% |
| Cc1nc(N2CCCC2)c2c(C(=O)Nc3ccc(Br)cc3F)c(C)oc2n1 | 3.02% |
| CCN(CC)CCCNC(=O)CSc1nc(-c2ccc(OC)cc2)cc(C(F)(F)F)n1 | 3.06% |
| Oc1c(C(c2ccccc2Cl)N2CCN(Cc3ccccc3)CC2)sc2nc(-c3ccco3)nn12 (stereo unspecified) | 27.9% |
| CCc1ccc(NC(=O)CSc2ccc(-c3cccs3)nn2)cc1 | -13.5% |
| Cc1noc(Cn2c(=O)c3cc4c(cc3n(CC(=O)Nc3ccccc3F)c2=O)OCO4)n1 | 4.62% |

| SMILES | inhibition |
| --- | --- |
| Cc1ccc(Cl)cc1NC(=O)CCn1c(=O)c2cccn2c2cccnc21 | -4.26% |
| CCOc1ccc2nc(N3CCC(C(=O)Nc4cc(C)ccc4C)CC3)sc2c1 | -4.79% |
| CCOC(=O)C1(CC2CC2)CCN(Cc2cnc(N(C)C)s2)CC1 | active: 67.8% |
| Cc1ccc(NC(=O)Cn2cc3c(n2)CCCC3)c(C)c1 | 13.6% |
| O=C(NC1CCCCC1)c1ccc(CSc2nc3ccncc3n2Cc2ccccc2F)cc1 | -8.47% |
| COc1ccc(NC(=O)CSc2nc(-c3cccs3)cc(C(F)(F)F)n2)c(OC)c1 | -10.1% |
| CC(=O)NC(CC(=O)NC(C)c1ccc(Cl)cc1Cl)c1ccccc1 (stereo unspecified) | active: 34.4% |
| COCCCNC(=O)c1ccc2c(c1)nc1n2CCCCC1 | -9.41% |
| O=C(Cn1c(=O)c2ccccc2n2nncc12)Nc1cccc(F)c1 | -10.8% |
| CCc1cccc(C)c1NC(=O)CCCN1C(=O)C(c2ccccc2)Oc2cccnc21 (stereo unspecified) | -1.06% |
| CC1CCN(c2ccc(-c3nc(-c4ccccc4)no3)cc2[N+](=O)[O-])CC1 | 24.7% |
| COc1ccc(NC(=O)NCCn2nnc3cc(S(=O)(=O)N(C)C)ccc32)cc1 | -3.98% |
| CCOC(=O)c1c(C)[nH]c(C)c1S(=O)(=O)N(C)CC(=O)NCc1cccc(Br)c1 | 0.968% |
| Cc1ccccc1Cn1cnc2nc3c(cc2c1=O)CC(C)CC3 (stereo unspecified) | -14.2% |
| CCc1cccc(C)c1NC(=O)CCCn1nc(C)c2sc3ccccc3c2c1=O | 3.35% |
| Cc1cc(N2CCCCC2)nc2ccc(NC(=O)/C=C/c3ccc(OCCC(C)C)cc3)cc12 | 7.15% |
| O=C(CSc1nc2ccsc2c(=O)n1-c1ccc(Br)cc1)NCc1ccccc1 | -28.6% |
| O=C(CSc1nnc2scc(-c3ccccc3)n12)Nc1ccc(Cl)cc1 | -18.9% |
| O=C(Nc1cccc(C(F)(F)F)c1)Nc1cccs1 | -3.47% |
| Cc1ccccc1C(=O)N1CCC(N2CCN(Cc3ccc(F)cc3)C(=O)C2=O)CC1 | 5.6% |
| CCCCN(CC)C(=O)C1CCCN(c2ncnc3c2nc2n3CCCCC2)C1 (stereo unspecified) | 10.1% |
| CCOC(=O)c1ccc(NC(=O)c2ccc(CN3C(=O)CCn4nc(C)cc43)cc2)cc1 | 1.04% |
| Cc1cccc(NC(=O)CN2C(=O)CCn3nc(-c4cccn4C)cc32)c1C | -11% |
| COc1ccc(NC(=O)C2CCN(S(=O)(=O)c3cc(-c4noc(C)n4)ccc3C)CC2)cc1 | 18.9% |
